Measured values taken from article PMC10088252.
Like-named read-outs stand apart in the source and are kept apart here. The source holds more than one record for some entries. They are shown here; other results are not. The source may hold further records. The values listed for one entry seem to repeat one measurement on other runs, samples or individuals.

System: locally advanced or metastatic NSCLC harboring c-MET overexpression or MET exon 14 skipping mutation
Format: in vivo, human
Description: Patients enrolled in this study were divided into two parts. […] Patients with pre-existing c-MET overexpression at hospital diagnosis were also included in Part A. In Part B, patients in the 400 mg bis in die (BID) dose cohort, blood and tissue samples were collected to perform NGS to determine the MET exon 14 skipping mutation. Patients harboring pre-existing MET exon 14 skipping mutation at hospital diagnosis were also enrolled into Part B. […] Statistical analyses were performed using SAS version 9.4 (SAS Institute, Cary, NC, USA). Age was expressed as median (range), and categorical variables were expressed as frequency (percentage). The 95% CIs of ORR and DCR were calculated using Clopper-Pearson method. […] No imputation method was performed for missing data.

For `O=C(Nc1ccc(Oc2ccnc3c2CCN3)c(F)c1)c1c[nH]cc(-c2ccc(F)cc2)c1=O`, the “OS, median (95% CI)” value (300 mg QD (n=12)) was “NE (4.0, NE) [table] and NE (95% CI 4.0 months–NE) [text]” and the “OS, median (95% CI)” value (600 mg QD (n=10)) was “NE (2.6, NE) [table] and NE (95% CI 2.6 months–NE) [text]”.
